{
  "source": "PubChem BioAssay AID1347165",
  "about": "(National Center for Advancing Translational Sciences (NCATS), 2019)",
  "note": "Several values for one entry are separate records, joined by “and”; a condition that tells them apart may be missing. Equal entries are not always repeated. Among all 220,000 compounds or so, about 5,700 (2.6%) were called active. The shares of active, inactive and inconclusive entries below differ from those in the screen. Calls come from the whole dose curve; as a rule, active = well fitted inhibition curve with a large enough effect; inconclusive = small, poorly fitted or top-dose-only effect; inactive = no such curve, though single readings can be large or run the other way. Potencies of inconclusive entries are doubtful fits and often do not repeat. Potency is the fitted concentration of half-maximal effect; tags give direction and shape of the fitted curve.",
  "data": [
    {"molecular_target": "Lysine-specific demethylase 5B (Homo sapiens) (UniProt Q9UGL1)", "sequence (Q9UGL1 whole entry, looked up)": "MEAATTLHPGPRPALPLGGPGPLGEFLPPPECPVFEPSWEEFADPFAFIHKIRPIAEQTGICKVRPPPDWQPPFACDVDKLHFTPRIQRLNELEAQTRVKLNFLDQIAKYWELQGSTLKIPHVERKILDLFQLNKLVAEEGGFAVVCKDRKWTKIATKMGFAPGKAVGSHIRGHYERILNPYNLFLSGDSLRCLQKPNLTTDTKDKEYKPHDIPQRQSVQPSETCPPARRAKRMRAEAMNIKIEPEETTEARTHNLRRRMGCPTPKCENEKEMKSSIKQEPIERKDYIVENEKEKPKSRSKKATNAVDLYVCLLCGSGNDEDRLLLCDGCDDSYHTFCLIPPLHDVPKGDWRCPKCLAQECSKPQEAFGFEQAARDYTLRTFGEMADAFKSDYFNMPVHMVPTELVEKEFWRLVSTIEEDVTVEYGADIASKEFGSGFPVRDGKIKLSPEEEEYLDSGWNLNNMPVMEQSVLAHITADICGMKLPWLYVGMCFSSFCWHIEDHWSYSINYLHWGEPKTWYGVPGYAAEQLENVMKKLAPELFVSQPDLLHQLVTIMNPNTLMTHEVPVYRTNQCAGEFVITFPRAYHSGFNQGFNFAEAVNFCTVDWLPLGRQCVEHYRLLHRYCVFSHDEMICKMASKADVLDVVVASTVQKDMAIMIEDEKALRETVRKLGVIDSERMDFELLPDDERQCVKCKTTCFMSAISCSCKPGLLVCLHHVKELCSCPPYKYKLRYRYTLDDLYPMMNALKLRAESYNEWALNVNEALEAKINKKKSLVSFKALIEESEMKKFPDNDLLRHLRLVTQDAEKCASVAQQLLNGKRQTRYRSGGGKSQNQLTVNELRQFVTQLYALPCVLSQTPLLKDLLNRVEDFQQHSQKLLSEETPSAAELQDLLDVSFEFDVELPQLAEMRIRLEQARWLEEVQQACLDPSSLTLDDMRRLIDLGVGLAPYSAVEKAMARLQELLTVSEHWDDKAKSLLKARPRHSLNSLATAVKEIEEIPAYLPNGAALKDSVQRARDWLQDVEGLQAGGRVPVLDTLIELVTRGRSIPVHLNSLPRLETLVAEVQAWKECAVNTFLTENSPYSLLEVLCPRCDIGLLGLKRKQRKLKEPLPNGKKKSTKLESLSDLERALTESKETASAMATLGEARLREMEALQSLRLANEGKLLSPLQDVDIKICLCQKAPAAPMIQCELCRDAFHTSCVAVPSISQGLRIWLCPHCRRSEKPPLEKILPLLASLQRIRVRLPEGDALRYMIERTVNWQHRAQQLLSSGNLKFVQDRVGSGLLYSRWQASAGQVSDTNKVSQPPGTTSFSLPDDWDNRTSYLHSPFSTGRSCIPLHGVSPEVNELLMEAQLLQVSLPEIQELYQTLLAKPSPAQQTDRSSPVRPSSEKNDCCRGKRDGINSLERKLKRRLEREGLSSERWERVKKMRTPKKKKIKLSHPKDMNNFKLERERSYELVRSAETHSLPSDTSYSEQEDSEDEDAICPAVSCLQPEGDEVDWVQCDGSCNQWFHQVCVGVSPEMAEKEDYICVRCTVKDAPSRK", "assay": "Primary screen for KDM5B Histone Demethylases FDH-coupled qHTS; note: nearly all actives have a fitted effect of over 70% in size; for activity change, negative = inhibition: 0% is about no effect", "settings": "FDH-coupled NADH fluorescence (FDH is formaldehyde dehydrogenase); activity change, negative = inhibition: at 57.7 µM (top of the series) unless noted", "summary_of_the_method": "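Coupled FDH/NAD⁺ fluorescence readout. KDM5BΔAP 200 nM final; compound titration, 10 min RT preincubation; substrate mix 12.5 µM H3K4me3, 25 µM 2-OG, 50 µM Fe(II), 100 µM ascorbate, 0.25 mM NAD⁺, 0.25 U/mL FDH; ΔRFU over 30 min.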", "values": [
      {"smiles": "COc1ccccc1-c1nnc(NC(=O)c2ccc(S(=O)(=O)N3CCOCC3)cc2)o1", "Potency": "inconclusive: 20 µM [inhibitor, partial curve, poor fit]"},
      {"smiles": "Cc1ccc(-c2nnc([C@H]3CCN(C4CCC4)C3)o2)cc1", "Potency": "active: 31.6 µM"},
      {"smiles": "COc1cccc(C(=O)Nc2oc3ccccc3c(=O)c2-c2ccc3c(c2)OCO3)c1", "Potency": "inactive"},
      {"smiles": "Cc1ccc(-c2csc(/C=C/c3cccc(O)c3)n2)cc1", "Potency": "inconclusive: 28.2 µM [inhibitor, partial curve, poor fit]"},
      {"smiles": "CCc1nc(SC)ncc1C(=O)N1CCN(c2cc(C)ccc2C)CC1", "Potency": "inconclusive: 11.2 µM [inhibitor, partial curve, poor fit]"},
      {"smiles": "O=C(O)c1cccc(OCc2nnnn2-c2ccc(Br)cc2)c1", "Potency": "inactive"},
      {"smiles": "COc1cc(-c2nc(C3CC(=O)N(c4ccc(C)cc4)C3)no2)cc(OC)c1OC", "note": "(centres undefined)", "Potency": "inconclusive: 15.8 µM [inhibitor, partial curve]"},
      {"smiles": "CC(CCc1ccccc1)NC(=O)Cn1cccc1-c1nc(-c2ccc(F)cc2)no1", "note": "(centres undefined)", "Potency": "inactive"},
      {"smiles": "CCCNc1c(NC(=O)c2ccccc2)c(=O)oc2ccccc12", "Potency": "inactive"},
      {"smiles": "CC(C(=O)NCc1ccccc1Cl)N(c1ccccc1)S(C)(=O)=O", "note": "(centres undefined)", "Potency": "inactive"},
      {"smiles": "COc1cccc(CN2CCCN(Cc3ccncc3)C(c3ccccc3)CC(=O)NCC2)c1OC", "note": "(centres undefined)", "Potency": "inconclusive: 17.8 µM [inhibitor, partial curve, poor fit]"},
      {"smiles": "O=S(=O)(Nc1nc2ccccc2nc1NCc1ccccc1Cl)c1cccs1", "Potency": "inactive"},
      {"smiles": "Cc1cccc(N(C(=O)c2snc(C(N)=O)c2N)C(C(=O)NCC2CCCO2)c2c[nH]c3ccccc23)c1", "note": "(centres undefined)", "Potency": "inconclusive: 25.1 µM [inhibitor, single point]"},
      {"smiles": "Cc1ncccc1C(=O)N1CCC(N2CC3CC(C2)[C@H]2CCCC(=O)N2C3)CC1", "note": "(some centres undefined)", "Potency": "inconclusive: 15.8 µM [inhibitor, single point]"},
      {"smiles": "COc1cccc(CNC(=O)CN2CCCc3nc(C)ncc3C2=O)c1", "Potency": "inconclusive: 39.8 µM [inhibitor, partial curve, poor fit]"},
      {"smiles": "O=C(c1ccsc1)N1CCC2(CC1)NCCc1c2[nH]c2ccccc12", "Potency": "inactive"},
      {"smiles": "CC(C)(C)OC(=O)N1CC(Nc2ccc(O)cc2)C1", "Potency": "active: 8.91 µM and inconclusive: 5.01 µM [inhibitor, full curve]"},
      {"smiles": "Cc1c(C#N)c(NC(=O)CSc2nnnn2C2CCCC2)n(CC2CCCO2)c1C", "note": "(centres undefined)", "Potency": "inactive"},
      {"smiles": "COc1ccc2cc(C(=O)N3CCN(c4cccc(C)c4)CC3)c(C)nc2c1", "Potency": "inactive"},
      {"smiles": "Nc1cccc2cccc(S(=O)(=O)O)c12", "Potency": "inconclusive: 14.1 µM [inhibitor, partial curve, poor fit]"},
      {"smiles": "N#Cc1cc2c(=O)n(CCc3n[nH]c4c3CCCC4)ccc2[nH]c1=O", "Potency": "active: 31.6 µM"},
      {"smiles": "COc1ccc2c(c1)c1c(c(=O)n(-c3cccc(C)c3)c(=O)n1Cc1cccc(Cl)c1)n2C", "Potency": "inconclusive: 3.98 µM [inhibitor, full curve, poor fit]"},
      {"smiles": "Cc1ccc(-n2nc(C)c3c(C)cc(=O)n(CC(=O)Nc4cccc(C)c4C)c32)cc1", "activity change, negative = inhibition": "inconclusive: -42.4% [inhibitor]"},
      {"smiles": "O=C(OCC(=O)N1CCCC1)c1cn(-c2ccccc2)nc1-c1ccc(F)cc1", "Potency": "inactive"},
      {"smiles": "COc1ccccc1CNc1ncnc2c1cnn2-c1ccc(C)cc1", "Potency": "inconclusive: 35.5 µM [inhibitor, partial curve, poor fit]"},
      {"smiles": "NNC(=O)CSc1c(-c2ccccc2)c2cc(Cl)ccc2[nH]c1=O", "Potency": "inconclusive: 39.8 µM [inhibitor, partial curve, poor fit]"},
      {"smiles": "COCCNC(=O)c1oc2ccc3c(c2c1C)C(O)CC(C)(C)O3", "note": "(centres undefined)", "Potency": "inconclusive: 31.6 µM [inhibitor, partial curve, poor fit]"},
      {"smiles": "COc1ccc(OC)c(S(=O)(=O)NCC(c2cccs2)S(=O)(=O)c2ccc(F)cc2)c1", "note": "(centres undefined)", "Potency": "inconclusive: 35.5 µM [inhibitor, single point]"},
      {"smiles": "Cc1cccc(CSc2nnc(CCCOc3ccc(Cl)cc3Cl)n2C)c1", "Potency": "inactive"},
      {"smiles": "O=C(NCc1nnc2ccc(-c3ccc(Cl)cc3)nn12)c1ccc(F)c(F)c1", "Potency": "active: 31.6 µM"},
      {"smiles": "COC(=O)c1ccc(C(=O)OC)c(NS(=O)(=O)c2c(C)cc(C)cc2C)c1", "Potency": "inconclusive: 6.31 µM [inhibitor, full curve, poor fit]"},
      {"smiles": "Cc1ccccc1NC(=O)c1sc2nc3c(cc2c1N)CN(Cc1ccccc1)CC3", "Potency": "inconclusive: 25.1 µM [inhibitor, partial curve, poor fit]"},
      {"smiles": "COc1ccc(-c2cc3ccc(OCc4nn[nH]n4)cc3oc2=O)cc1", "Potency": "inconclusive: 2 µM [inhibitor, full curve, poor fit]"},
      {"smiles": "Cc1ccc(OCC(=O)Nc2ccc3oc(C)nc3c2)c(C)c1", "Potency": "inactive"},
      {"smiles": "COc1ccc(Cn2c(C(=O)O)c(CNCc3ccc(SC)cc3)c3ccc(OC)cc32)cc1", "Potency": "inconclusive: 1.41 µM [inhibitor, partial curve, poor fit]"},
      {"smiles": "N#CC(C(=O)NCc1ccccc1)c1nc2ccccc2nc1N1CCN(c2ccc(F)cc2)CC1", "note": "(centres undefined)", "Potency": "inactive"},
      {"smiles": "CC(C1CC1)N(Cc1ccccc1)S(=O)(=O)c1cc(S(C)(=O)=O)ccc1Cl", "note": "(centres undefined)", "Potency": "inactive"},
      {"smiles": "CCC(C)NC(=O)c1sc2nc(C)c(C(=O)Nc3ccc(C)cc3C)c(-c3ccc(NC(C)=O)cc3)c2c1N", "note": "(centres undefined)", "Potency": "inconclusive: 31.6 µM [inhibitor, single point]"},
      {"smiles": "Cc1ccc(-c2cccc(CN3CCCC(c4nc5ccc(C)cc5c(=O)[nH]4)C3)c2)c(C)c1", "note": "(centres undefined)", "Potency": "inconclusive: 31.6 µM [inhibitor, partial curve, poor fit]"},
      {"smiles": "COCCNc1ccc2cc(S(=O)(=O)N3CCCCC3)ccc2n1", "Potency": "inconclusive: 31.6 µM [inhibitor, partial curve, poor fit]"},
      {"smiles": "Cc1ccc2nc(NC(=O)CSc3nccn3Cc3ccc(F)cc3)sc2c1", "Potency": "inconclusive: 11.2 µM [inhibitor, partial curve, poor fit]"},
      {"smiles": "CC[C@H]1CN(C(=O)NC(C)C)CC[C@H]1CC(=O)NCc1cccc2ccccc12", "Potency": "inconclusive: 28.2 µM [inhibitor, single point]"},
      {"smiles": "COc1cc(/C=N/O)cc(Br)c1O", "Potency": "inactive"},
      {"smiles": "COc1ccc(-c2cc(N3CCCC(NC(=O)c4ccc(C)nc4)C3)n[nH]2)cc1", "note": "(centres undefined)", "Potency": "inconclusive: 31.6 µM [inhibitor, single point]"},
      {"smiles": "CCNC(=O)Nc1ccc2c(c1)CN(Cc1ccccc1OC)C(=O)C(C)O2", "note": "(centres undefined)", "Potency": "active: 28.2 µM"},
      {"smiles": "COC(=O)C1=C(C)N(c2ccccc2)C(=O)CC1C(=O)Nc1ccc(F)c(F)c1", "note": "(centres undefined)", "Potency": "inactive"},
      {"smiles": "Cc1noc(C)c1-c1cc2c(cc(-c3ccccc3)n2C)c(N2CCOCC2)n1", "Potency": "active: 22.4 µM"},
      {"smiles": "COc1cc(Cl)ccc1C(=O)N1CC2CC(C1)[C@H]1CCCC(=O)N1C2", "note": "(some centres undefined)", "Potency": "inactive"},
      {"smiles": "Cc1noc(C)c1Cn1c(=O)c2c(ncn2C2CCCC2)n(Cc2ccccc2)c1=O", "Potency": "inactive"},
      {"smiles": "Cc1ccc2c(c1)c1c(c(=O)n(Cc3ccccc3)c(=O)n1CC(=O)Nc1ccccc1F)n2C", "Potency": "inconclusive: 25.1 µM [inhibitor, partial curve, poor fit]"},
      {"smiles": "Cc1ccc(-c2cc(C(=O)Oc3ccc(C#N)cc3)no2)cc1C", "Potency": "inconclusive: 2.82 µM [inhibitor, full curve, poor fit]"},
      {"smiles": "CCN1CCN(c2cc(C(=O)O)c3cc(NC(=O)C(C)C)ccc3n2)CC1", "Potency": "inconclusive: 28.2 µM [inhibitor, partial curve, poor fit]"},
      {"smiles": "COc1cccc(CCC(=O)N2CCC(C3CCNC3)CC2)c1", "note": "(centres undefined)", "Potency": "inactive"},
      {"smiles": "CC(C)C(=O)Nc1ccc(C2(C(=O)NCc3cccnc3)CCCCC2)cc1", "Potency": "inactive"},
      {"smiles": "CNC(=O)C1(C)CN(Cc2ccccc2)Cc2ccc(N3CCOCC3)nc21", "note": "(centres undefined)", "Potency": "active: 35.5 µM"},
      {"smiles": "S=c1[nH]nc(-c2ccncc2)n1/N=C/c1cccc(Cl)c1", "Potency": "inconclusive: 2.51 µM [inhibitor, full curve, poor fit]"},
      {"smiles": "COc1cccc(-c2cc(-c3ccccc3)nc3c(C)noc23)c1", "Potency": "active: 31.6 µM"},
      {"smiles": "Cc1cccc(-c2nc(CN3CCCC(C(=O)NCCc4ccc(Cl)cc4)C3)c(C)o2)c1", "note": "(centres undefined)", "Potency": "inconclusive: 35.5 µM [inhibitor, single point]"},
      {"smiles": "CC(C)NC(=O)NNC(=O)c1nn(-c2ccc(F)cc2)ccc1=O", "Potency": "inconclusive: 39.8 µM [inhibitor, partial curve, poor fit]"},
      {"smiles": "O=c1cc(C2=CCOCC2)oc2c(-c3cccc4[nH]ccc34)nccc12", "Potency": "inconclusive: 25.1 µM [inhibitor, partial curve, poor fit]"},
      {"smiles": "C[C@@H](NC(=O)c1nc2ccccc2[nH]1)c1onc(-c2ccc(F)cc2)c1C(=O)O", "Potency": "active: 35.5 µM"},
      {"smiles": "COCCN1CCCC2(CCN(C(=O)COc3cccc(C)c3C)C2)C1=O", "note": "(centres undefined)", "Potency": "inactive"},
      {"smiles": "COc1ccc(C(=O)COC(=O)c2cc(C)nc3ccccc23)cc1", "Potency": "inactive"},
      {"smiles": "Nc1nc(CN2CCN(C(=O)c3cccc(F)c3)CC2)nc2ccccc12", "Potency": "inactive"},
      {"smiles": "CCCCn1c(N)c(N(Cc2ccco2)C(=O)c2cccnc2OCC)c(=O)[nH]c1=O", "Potency": "inactive"},
      {"smiles": "Cc1ccc(C(c2c(O)cc(C)n(Cc3ccco3)c2=O)N2CCC(C)CC2)cc1", "note": "(centres undefined)", "Potency": "inconclusive: 35.5 µM [inhibitor, single point]"},
      {"smiles": "COc1ccc2[nH]c3c(c2c1)CCNC31CCN(C(=O)Cn2nc(C)cc2C)CC1", "Potency": "inconclusive: 25.1 µM [inhibitor, single point]"},
      {"smiles": "CS(=O)(=O)c1ccc2sc(N)nc2c1", "Potency": "inactive"},
      {"smiles": "Cn1cc(Br)c(C(=O)N/N=C/c2cc3c(cc2Cl)OCO3)n1", "Potency": "inconclusive: 35.5 µM [inhibitor, single point]"}
    ]}
  ]
}
